Experimental data from the supplement of paper PMC10126150.
Sequences with one replicate were seen in a single cluster, so their values are uncertain.

system: ATP; assay: switch fluorescence ratio, 500 uM ATP over buffer (Cy3 cluster intensity, sum of 5 cycles each) (fold (ratio)); higher = stronger signal-on switching upon ATP binding; sequences stand for … in TCGTCGGCAGCGTCAGATGTGTATAAGAGACAGTTTTTTTTTTTTTTTTTTTTTTTTT…TC; conditions: aptamer strand: ATP DNA aptamer (quencher-CACCTGGGGGAGTATTGCGGAGGAAGG + anchor), 100 nM annealed; ATP concentration: 500 uM; one replicate
Summary of the method: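 Clusters carrying Cy3-labelled switching strands on a modified Illumina MiSeq flow-cell were annealed to 100 nM quencher-labelled ATP aptamer and imaged in selection buffer. They were imaged again after 15 min with 500 uM ATP at 22 °C, over five buffer/ATP cycles with NaOH stripping and re-annealing in between. For each cluster, the fluorescence ratio is the summed Cy3 intensity of the target cycles divided by that of the buffer cycles, averaged per switch-domain sequence. Clusters outside 100-1000 RFU were left out.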
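Also: ATP exposure 15 min at 22 °C before imaging.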

Sequence	switch fluorescence ratio
TATCCACGCC	1.13
TATCCAGAAG	1
TATCCCCGAA	1.05
TATCCGACTG	1.05
TATCCGTACA	1.1
TATCCGTGCC	1.1
TATCCTGTT	1
TATCGACTGT	0.997
TATCGATTGA	1.01
TATCGCGCTG	0.964
TATCGCGGGC	1.96
TATCGCTGGG	1.02
TATCGCTTCC	2.22
TATCGGTAGT	0.954
TATCGGTCTG	1.07
TATCGTCTCG	0.993
TATCGTGACT	1.01
TATCGTGGTC	0.989
TATCGTTAAA	0.981
TATCTACTGC	0.953
TATCTGCATG	1.94
TATCTGGAGC	1.02
TATCTGGAGG	0.936
TATCTGGCGG	0.942
TATCTTGGAG	0.988
TATCTTTTGT	0.991

Sequence	switch fluorescence ratio
TATGAATGTA	1
TATGAATTGC	1.08
TATGACTTCA	1.04
TATGAGCGGG	0.984
TATGAGTA	1.01
TATGCACCAG	1.06
TATGCCAGA	0.97
TATGCCGCGT	0.973
TATGCGGTTA	0.969
TATGCGTATG	0.981
TATGCTGGA	1.08
TATGCTGGCA	1.04
TATGCTTCAC	1.02
TATGGACTGG	1.01
TATGGATGAT	1.02
TATGGCAGCC	0.966
TATGGCATTG	1
TATGGCTAGC	1.01
TATGGCTGAC	1.16
TATGGCTGGA	1.11
TATGGGAGTA	0.958
TATGGGTAGG	1.02
TATGGGTCAG	0.99
TATGGGTGG	1.02
TATGGTACGC	1.04
TATGGTATAT	1.02

Sequence	switch fluorescence ratio
TATGGTCCAA	0.991
TATGGTTAGT	1.03
TATGTCAAAC	1.06
TATGTGATTC	0.989
TATGTGGGAC	0.984
TATGTGGGCG	1.06
TATGTTACAA	1.06
TATGTTCAAA	0.959
TATTAAAGGC	1.07
TATTAACATT	0.974
TATTAACCTA	1.04
TATTAAGA	1.02
TATTAATGCG	1.04
TATTACCGGT	1
TATTACGT	1.05
TATTACTGCT	0.998
TATTACTTAT	1.03
TATTAGCCCA	1
TATTAGCTGT	0.987
TATTAGG	1.01
TATTAGTATC	0.98
TATTAGTTG	1.01
TATTATGAAC	0.979
TATTATGCGC	1
TATTATGGC	0.902
TATTATGTTT	0.972

Sequence	switch fluorescence ratio
TATTATTCTC	1.03
TATTATTTTA	1
TATTCAAT	1.02
TATTCAGGGC	1.05
TATTCCTGAC	1.91
TATTCCTGCT	1.18
TATTCGGGCT	0.993
TATTCTACGA	1.04
TATTCTACTC	1.06
TATTCTGATG	0.99
TATTCTGTG	1.01
TATTGAGTAC	1.03
TATTGATGTG	1
TATTGCCTAC	1.02
TATTGCTTTT	1.07
TATTGGGGTG	1.07
TATTGTCCTA	1.03
TATTTAGCGC	0.984
TATTTAGTCA	0.926
TATTTCAAAT	0.972
TATTTCGGCG	1
TATTTGGACA	1
TATTTGGCGG	0.966
TATTTGTCCC	1.09
TATTTTATCG	1.04
TATTTTCATC	1.04

Sequence	switch fluorescence ratio
TATTTTGTCA	1.01
TCAAAAAAC	0.991
TCAAAAACCG	1.22
TCAAACGTGT	0.957
TCAAACTATG	0.963
TCAAAGACTC	1.03
TCAAAGGCAT	1
TCAAAGGGGA	1
TCAAATTTCC	1.04
TCAACAGAGG	1.02
TCAACGGGCT	1.06
TCAAGACGTT	1.04
TCAAGCAGGA	1.02
TCAAGCGCGG	1.03
TCAAGGACCT	1.16
TCAAGGGTGT	1.14
TCAATACTAA	1.04
TCAATCACAT	1.01
TCAATCCATT	0.96
TCAATGTATC	1.01
TCAATTCTGC	0.908
TCAATTGTGA	0.956
TCAATTTCGA	1.02
TCACAAACGT	1.36
TCACAAAGAC	1.08
TCACAAAGCT	1.06

Sequence	switch fluorescence ratio
TCACAACT	1.05
TCACACGGCC	1.09
TCACAGAATT	0.985
TCACAGGGGA	1.07
TCACAGTG	1.08
TCACATAGGG	1.03
TCACATTATG	1.02
TCACATTGGC	0.974
TCACCAATCT	1.04
TCACCCCCTT	1.54
TCACCGAACT	1.24
TCACCGCAGG	1.04
TCACCGGGCG	1.12
TCACGAAACA	1.32
TCACGAAAGG	1.06
TCACGAAGTA	0.974
TCACGCGCTG	0.986
TCACGTCCGG	1.04
TCACGTTATA	1.21
TCACGTTTCC	1.13
TCACTAGGAA	1.07
TCACTGATAC	1.41
TCACTGTGGG	1.01
TCACTTCTTA	1.05
TCACTTTTGT	1
TCAGAACAT	1.06

Sequence	switch fluorescence ratio
TCAGACACGT	1.21
TCAGACTCGG	1.08
TCAGAGCTTC	1.02
TCAGAGTCGG	1
TCAGAGTGTT	1
TCAGAGTTTC	0.978
TCAGATCGT	0.93
TCAGATCTAG	1.01
TCAGATGA	1.06
TCAGCACGCA	1.5
TCAGCGGAAA	1.06
TCAGCTCAGA	1.03
TCAGCTGAGT	0.984
TCAGCTGCG	0.941
TCAGCTGGG	0.996
TCAGGACTTA	0.987
TCAGGAGGTC	0.937
TCAGGCCCGC	1.02
TCAGGCGAAA	1.03
TCAGGGACG	0.967
TCAGGGATAG	1.05
TCAGGTACTT	1.03
TCAGGTATTA	0.976
TCAGTAAGAT	1.03
TCAGTAAGCT	1.04
TCAGTACTGC	1.05

Sequence	switch fluorescence ratio
TCAGTAGGAT	1.02
TCAGTCGGGG	0.991
TCAGTCGGT	0.958
TCAGTCTGAC	0.979
TCAGTGAAAG	0.99
TCAGTGAATT	0.966
TCAGTTCCTA	0.994
TCAGTTTGT	0.947
TCATAACAAA	0.991
TCATACGGCT	1.03
TCATAGCAAG	1.6
TCATAGGGAG	0.977
TCATATATGC	1.03
TCATATTATA	1.03
TCATCAGGGG	1.03
TCATCCAGCG	1.46
TCATCCTTAG	1.07
TCATCGAGTG	1
TCATCTAGGG	1
